Reference: the supplement of paper PMC4967469
The IC50 comes from the fitted curve, where viability falls to half of the control; where the fit passes the top or lowest dose, that dose stands as a limit. AUC, from the same fit, is the share of area under the viability curve across the 256-fold dose range; values near 1 show little effect. For some assays here: A top dose marked as inferred was derived from the fitted curves, not read from the paper. For some assays here: An entry number marks a drug with two screens in the source, which often give different values.

Legend:
Experiment in all cases: Viability of human cancer cell lines after 72 h of drug (GDSC screen)
CHIR-99021 = compound: Cc1cnc(-c2cnc(NCCNc3ccc(C#N)cn3)nc2-c2ccc(Cl)cc2Cl)[nH]1 [CHIR-99021]
Description: (§1)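 Human cancer cell lines in 384-well plates, medium with 10% serum, drug for 72 h over a 256-fold dose range (nine 2-fold or five 4-fold steps up to the top dose). Adherent lines were fixed and stained with the nucleic acid dye Syto60, suspension lines read with resazurin; signal relative to control wells, capped at 0 and 100%. One two-parameter sigmoid per drug and line, fitted in a mixed model over all curves with the slope shared within a line.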

CP466722 = compound: COc1cc2ncnc(-n3nc(-c4ccccn4)nc3N)c2cc1OC [CP466722]; details: top dose 16 µM; top dose inferred
Description: as §1

Zibotentan = compound: COc1nc(C)cnc1NS(=O)(=O)c1cccnc1-c1ccc(-c2nnco2)cc1 [Zibotentan]; details: top dose 20 µM; top dose inferred
Description: as §1

Thapsigargin = compound: C/C=C(/C)C(=O)O[C@H]1C(C)=C2[C@H]([C@@H]1OC(=O)CCCCCCC)[C@@](C)(OC(C)=O)C[C@H](OC(=O)CCC)[C@@]1(O)[C@H]2OC(=O)[C@@]1(C)O [Thapsigargin]; details: top dose 0.512 µM; top dose inferred
Description: as §1

ABT-869 = compound: Cc1ccc(F)c(NC(=O)Nc2ccc(-c3cccc4[nH]nc(N)c34)cc2)c1 [ABT-869]; details: top dose 1.024 µM; top dose inferred
Description: as §1

ABT-888 = compound: C[C@]1(c2nc3c(C(N)=O)cccc3[nH]2)CCCN1 [ABT-888]; details: top dose 5 µM; top dose inferred
Description: as §1

GSK269962A = compound: CCn1c(-c2nonc2N)nc2cnc(Oc3cccc(NC(=O)c4ccc(OCCN5CCOCC5)cc4)c3)cc21 [GSK269962A]; details: top dose inferred
Description: as §1

QL-X-138 = compound: C=CC(=O)Nc1cc(-n2c(=O)ccc3cnc4ccc(-c5cn[nH]c5)cc4c32)ccc1C [QL-X-138]; details: top dose 10.24 µM; top dose inferred
Description: as §1

Cytarabine = compound: Nc1ccn([C@@H]2O[C@H](CO)[C@@H](O)[C@@H]2O)c(=O)n1 [Cytarabine]; details: top dose 2 µM
Description: as §1

MPS-1-IN-1 = compound: COc1cc(N2CCC(O)CC2)ccc1Nc1cc(Nc2ccccc2S(=O)(=O)C(C)C)c2cc[nH]c2n1 [MPS-1-IN-1]; details: top dose 20 µM; top dose inferred
Description: as §1

CMK = compound: Cc1ccc(-c2c(C(=O)CCl)n(CCCO)c3ncnc(N)c23)cc1 [CMK]; details: top dose 4 µM; top dose inferred
Description: as §1

KU-55933 = compound: O=c1cc(-c2cccc3c2Sc2ccccc2S3)oc(N2CCOCC2)c1 [KU-55933]; details: top dose 10 µM
Description: as §1

(5Z)-7-Oxozeaenol = compound: COc1cc(O)c2c(c1)/C=C/C[C@H](O)[C@H](O)C(=O)/C=C\C[C@H](C)OC2=O [(5Z)-7-Oxozeaenol]; details: top dose 10 µM; top dose inferred
Description: as §1

[1] = top dose 2.56 µM, screen: GDSC drug entry 154
[2] = top dose 10 µM, screen: GDSC drug entry 1241, top dose inferred
[3] = top dose 2.5 µM, screen: GDSC drug entry 127
[4] = top dose 5 µM, screen: GDSC drug entry 1192

Row | Cell Line | AUC (CHIR-99021; [1]) | IC50 (CHIR-99021; [1]) [µM] | AUC (CHIR-99021; [2]) | IC50 (CHIR-99021; [2]) [µM] | AUC (CP466722) | IC50 (CP466722) [µM] | AUC (Zibotentan) | IC50 (Zibotentan) [µM] | AUC (Thapsigargin) | IC50 (Thapsigargin) [µM] | AUC (ABT-869) | IC50 (ABT-869) [µM] | AUC (ABT-888) | IC50 (ABT-888) [µM] | AUC (GSK269962A; [3]) | IC50 (GSK269962A; [3]) [µM] | AUC (GSK269962A; [4]) | IC50 (GSK269962A; [4]) [µM] | AUC (QL-X-138) | IC50 (QL-X-138) [µM] | AUC (Cytarabine) | IC50 (Cytarabine) [µM] | AUC (MPS-1-IN-1) | IC50 (MPS-1-IN-1) [µM] | AUC (CMK) | IC50 (CMK) [µM] | AUC (KU-55933) | IC50 (KU-55933) [µM] | AUC ((5Z)-7-Oxozeaenol) | IC50 ((5Z)-7-Oxozeaenol) [µM]
1 | NB(TU)1-10 (neuroblastoma, adherent) | 0.972 | > 2.56 | 0.993 | > 10 | 0.97 | > 16 | 0.993 | > 20 | 0.294 | 0.00926 | 0.989 | > 1.02 | 0.977 | > 5 | 0.971 | > 2.5 | 0.992 | > 5 | 0.976 | > 10.2 | 0.993 | > 2 | 0.757 | 6.04 | 0.939 | > 4 | 0.964 | > 10 | 0.844 | 5.76
2 | NB-4 (acute myeloid leukaemia, suspension) | 0.991 | > 2.56 | 0.991 | > 10 | 0.636 | 2.2 | 0.99 | > 20 | 0.34 | 0.0126 | 0.988 | > 1.02 | 0.99 | > 5 | 0.984 | > 2.5 | 0.97 | > 5 | 0.535 | 0.782 | 0.717 | – | 0.736 | 5.05 | 0.845 | 2.14 | 0.973 | > 10 | 0.472 | 0.533
3 | NCI-H69 (small cell lung carcinoma, suspension) | 0.986 | > 2.56 | 0.984 | > 10 | 0.785 | 7.67 | 0.986 | > 20 | 0.606 | 0.065 | 0.986 | > 1.02 | 0.986 | > 5 | 0.926 | > 2.5 | 0.823 | 3.41 | 0.683 | 2.21 | 0.985 | > 2 | 0.985 | > 20 | 0.971 | > 4 | 0.969 | > 10 | 0.752 | 3.65
4 | NCI-H187 (small cell lung carcinoma, suspension) | 0.987 | > 2.56 | 0.987 | > 10 | 0.825 | 10.7 | 0.987 | > 20 | 0.553 | 0.0453 | 0.983 | > 1.02 | 0.988 | > 5 | 0.987 | > 2.5 | 0.97 | > 5 | 0.675 | 2.07 | 0.955 | > 2 | 0.935 | > 20 | 0.988 | > 4 | 0.979 | > 10 | 0.957 | > 10
5 | NCI-H209 (small cell lung carcinoma, suspension) | 0.984 | > 2.56 | 0.981 | > 10 | 0.74 | 5.15 | 0.979 | > 20 | 0.436 | 0.0212 | 0.977 | > 1.02 | 0.954 | > 5 | 0.915 | > 2.5 | 0.899 | > 5 | 0.595 | 1.19 | 0.818 | 1.23 | 0.876 | > 20 | 0.986 | > 4 | 0.944 | > 10 | 0.946 | > 10
6 | NCI-H211 (small cell lung carcinoma, adherent) | 0.988 | > 2.56 | 0.987 | > 10 | 0.769 | 5.87 | 0.988 | > 20 | 0.276 | 0.00757 | 0.969 | > 1.02 | 0.985 | > 5 | 0.842 | 1.69 | 0.924 | > 5 | 0.545 | 0.848 | 0.81 | 1.02 | 0.808 | 10 | 0.981 | > 4 | 0.981 | > 10 | 0.847 | 7.06
7 | NCI-H226 (lung squamous cell carcinoma, adherent) | 0.987 | > 2.56 | 0.893 | > 10 | 0.799 | 8.1 | 0.986 | > 20 | 0.314 | 0.00938 | 0.987 | > 1.02 | 0.987 | > 5 | 0.983 | > 2.5 | 0.866 | 4.87 | 0.836 | 7.29 | 0.884 | > 2 | 0.787 | 9.16 | 0.855 | 3.44 | 0.987 | > 10 | 0.796 | 4.95
8 | NCI-H322M (lung adenocarcinoma, suspension) | 0.986 | > 2.56 | 0.983 | > 10 | 0.852 | > 16 | 0.985 | > 20 | 0.96 | > 0.512 | 0.985 | > 1.02 | 0.983 | > 5 | 0.98 | > 2.5 | 0.97 | > 5 | 0.824 | 8.05 | 0.987 | > 2 | 0.924 | > 20 | 0.918 | > 4 | 0.937 | > 10 | 0.978 | > 10
9 | NCI-H345 (small cell lung carcinoma, suspension) | 0.99 | > 2.56 | 0.989 | > 10 | 0.979 | > 16 | 0.99 | > 20 | 0.547 | 0.0433 | 0.987 | > 1.02 | 0.99 | > 5 | 0.99 | > 2.5 | 0.96 | > 5 | 0.869 | > 10.2 | 0.984 | > 2 | 0.99 | > 20 | 0.93 | > 4 | 0.99 | > 10 | 0.954 | > 10
